# This sample is rich in variants without activity.
# B1: TPR 5TU (parent)
# chain: GGAUCUUCUCGAUCUAACAAAAAAGACAAAUCUGCCACAAAGCUUGAGAGCAUCUUCGGAUGCAGAGGCGGCAGCCUUCGGUGGCGCGAUAGCGCCAACGUUCUCAACUAUGACACGCAAAACGCGUGCUCCGUUGAAUGGAGUUUAUCAUG
# Variants of: B1
# Assay: polymerase ribozyme fitness, log enrichment relative to wild type (log ratio); higher = more active; in vitro selection for triplet polymerase activity
# Procedure, shortened: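 For each subunit of a heterodimeric triplet polymerase ribozyme, a mutant library was built by PCR and transcribed, then taken through a single in vitro selection round in triplicate. Selection involved annealing to a biotinylated primer, the partner subunit and triplets, incubation frozen at −7 °C, gel excision of extended constructs, capture on streptavidin beads and RT-PCR. Genotypes were retained after Illumina sequencing of inputs and outputs only with ≥10 input reads and ≥1 read in each output. Fitness is defined as the logarithm of a genotype's enrichment relative to wild-type enrichment, using inverse-variance-weighted averages across replicates, with the logarithm taken to base 2.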
row,Variant,polymerase ribozyme fitness (log ratio)
1,A41C A73C C87A A115U,≤ -4.2
2,A41C A73G U145C,-1.73
3,A41C A89G C96G U101C U111A,≤ -4.2
4,A41C A89U C95U G124A C125G,-1.75
5,A41C A91C,≤ -4.2
6,A41C A91G C118G,-3.64
7,A41C A98U G100A,≤ -4.2
8,A41C A142G U144C G152A,-3.09
9,A41C C43A A60G,≤ -4.2
10,A41C C43U A89U G143C A147C,≤ -4.2
11,A41C C43U C63U G88U,≤ -4.2
12,A41C C43U C125U,≤ -4.2
13,A41C C43U G83A A106C A115G C118A G140A,≤ -4.2
14,A41C C43U U45A G50C C93U C103A G133U,≤ -4.2
15,A41C C51U,-0.722
16,A41C C54A U56A A73U A89U U101G A115C C129G U134A,≤ -4.2
17,A41C C54U U55G A64U C85G G112A C114G A137C A147C,≤ -4.2
18,A41C C54U U61G G68C,≤ -4.2
19,A41C C57A C96U,-0.533
20,A41C C57A C96U U134C,-0.224
21,A41C C57G,-1.09

row,Variant,polymerase ribozyme fitness (log ratio)
1,A41C C57G G67U G92C G141A,≤ -4.2
2,A41C C72G C76A C116G C118U,≤ -4.2
3,A41C C72U C95U C103U G143C C149G,≤ -4.2
4,A41C C72U G92C G126U G140A,≤ -4.2
5,A41C C75U C87A C116G G133U A147U,≤ -4.2
6,A41C C76U G81A A110C,≤ -4.2
7,A41C C76U G84U,-2.96
8,A41C C79A G84A G126C,≤ -4.2
9,A41C C79G,≤ -4.2
10,A41C C79G C93G,≤ -4.2
11,A41C C79U G94U G100A C125A,-2.23
12,A41C C85G A89G U102G G143A,≤ -4.2
13,A41C C85U,-1.29
14,A41C C85U A89G U90G A106G,≤ -4.2
15,A41C C87U,-1.35
16,A41C C87U A120C,-1.53
17,A41C C87U C93A,≤ -4.2
18,A41C C93U C105U,-1.68
19,A41C C93U C123U,-1.59
20,A41C C95G C103U U135G,≤ -4.2
21,A41C C96U A107U C131A G133A U146C,≤ -4.2

row,Variant,polymerase ribozyme fitness (log ratio)
1,A41C C108A,≤ -4.2
2,A41C C125G,-0.815
3,A41C C131A U139A,≤ -4.2
4,A41C G42A A52U C87U C95U,≤ -4.2
5,A41C G42A U61A C76G U127A A138U,≤ -4.2
6,A41C G42C A47G G68C C75G A106G A107G,≤ -4.2
7,A41C G46A C57U C95U A115G,-3.25
8,A41C G46A U90A A150G,≤ -4.2
9,A41C G48A,-1.3
10,A41C G48A A49C U55A G136U A142G,≤ -4.2
11,A41C G48A A60G G83C A110U U144C,≤ -4.2
12,A41C G48C C76U G88U,≤ -4.2
13,A41C G50A G86A A98G,-3.62
14,A41C G50A G86A G140A,≤ -4.2
15,A41C G50U C95A A120C U134A A142C G143A,≤ -4.2
16,A41C G50U G74A C75G U77G C79A G88U C93U,≤ -4.2
17,A41C G59A G86U,-2.6
18,A41C G59A G94A A119C,-1.52
19,A41C G59U C93U C95G U109C G126U,≤ -4.2
20,A41C G59U G88A A120G,≤ -4.2
21,A41C G62A C87G G88U C103A C105U,≤ -4.2

row,Variant,polymerase ribozyme fitness (log ratio)
1,A41C G62C C72A,≤ -4.2
2,A41C G65A C85A A98U G117C G152U,≤ -4.2
3,A41C G67A G81U G94C A107C,≤ -4.2
4,A41C G67U C129G A137G A142C,≤ -4.2
5,A41C G68C,≤ -4.2
6,A41C G70C G74U C93U,≤ -4.2
7,A41C G74A A97C A150U,≤ -4.2
8,A41C G74A C87A C108G,≤ -4.2
9,A41C G74C A97U U111G G117A G152A,≤ -4.2
10,A41C G80A C87A,≤ -4.2
11,A41C G80C U134G,≤ -4.2
12,A41C G83U,-0.922
13,A41C G83U G124U,-0.893
14,A41C G86U C99G G133C A138G G140U,≤ -4.2
15,A41C G92C U127A,≤ -4.2
16,A41C G92U A138C U145A G152A,≤ -4.2
17,A41C G100A A142C,≤ -4.2
18,A41C G136A,0.215
19,A41C U44A G46A U56A G65U U102C U134A,≤ -4.2
20,A41C U44A G86U A97G U127G U135A,≤ -4.2
21,A41C U45A G68A C85A C118G C129U U144C U146A,≤ -4.2

# Source: the RNAGym collection of RNA variant scans (doi:10.1073/pnas.2313332121)
